Out of some 150,000 compounds screened, about 540 (0.36%) showed an effect of 50% or more. Some of the results follow.

The term % Inhibition denotes the drop in the measured response relative to a control, in per cent.

In the test the test system is Plasmodium falciparum. In words: Primary screen in NF54 nanoGlo assay, in single point, at 2uM, 72h; a lower Z score goes with more inhibition. To be noted: timepoint 72 hour. The class given is functional, Erythrocyte.
In the case of `N#Cc1ccc(NC(=O)N2C3CCC2CC(O)(Cc2ccc(F)cc2F)C3)cc1` (stereo not drawn), the “% Inhibition” value is -12% and the Z score is 1.24.
With `COCCc1noc(-c2ccccc2-n2cccn2)n1`, the “% Inhibition” value came to 0% and the Z score is 0.02.
In the case of `COc1cccc(NC(=O)NCc2coc(CN(C)C)n2)n1`, the “% Inhibition” value is 13% and the Z score is -1.68.
Taken in the same sequence, the figures for `CCc1ncc(CN(C)C(=O)C(=O)Nc2c(C)noc2CC)s1` were -11% and 1.81.
For `Cc1cccc2c(C(=O)NC(C)(C)[C@H](O)C(F)(F)F)coc12`, the “% Inhibition” value turned out to be 6% and the Z score was -0.7.
With `COc1cccc(C(=O)N[C@H](C(=O)NCC(C)C)C2CCN(C(=O)c3cccc(OC)c3)CC2)c1`, the “% Inhibition” value was found to be 1% and the Z score was -0.17.
Taken in the same sequence, the figures for `Cn1nc(C2CC2)c2[nH]c(-c3ccccc3OC(F)(F)F)nc21` were -12% and 1.7.
As to `CCn1cc(CN(CC(C)C)C(=O)CCc2ccc(=O)[nH]n2)cn1`, the “% Inhibition” value was -10% and the Z score was 1.75.
As to `COCCn1cnnc1CCNC(=O)c1cccn1C(C)C`, the “% Inhibition” value is on record as -13% and the Z score was 2.61.
For the compound `O=C1CCC2(CCN1)CCN(C(=O)c1cccc(-c3ccccc3)c1)CC2`, the “% Inhibition” value is recorded as -1% and the Z score was 0.12.
Turning to `Cc1ccc(-c2cc(N3CCCN(C(=O)C4CCCCC4)CC3)[nH]n2)cc1C`, the “% Inhibition” value was -2% and the Z score is 0.31.
Take `COc1ccc(C)cc1NC(=O)Cn1c(=O)n(CCc2cccs2)c(=O)c2ccccc21`: the “% Inhibition” value stood at 1% and the Z score is recorded as -0.17.
As for `Cc1nc(-c2ccccc2)c(C(=O)N2CCOC[C@@H](O)C2)s1`, the “% Inhibition” value is recorded as -10% and the Z score amounted to 1.53.
Take `Cc1cnc(C(=O)N(C)C(C)(C)C(N)=O)c(C)c1`: the “% Inhibition” value worked out at 4% and the Z score is given as -0.66.
With `Cn1cccc1[C@@H](O)CNC(=O)c1cnccn1`, the “% Inhibition” value was -20% and the Z score is given as 3.45.
On to `C[C@@H](C#N)NC(=O)c1cc(F)ccc1Cl`, for which the “% Inhibition” value amounted to 8% and the Z score is -1.21.
In the case of `COc1cc(C(=O)N2CCC[C@H]2c2ccc(C(N)=O)s2)c2ccccc2n1`, the “% Inhibition” value is -13% and the Z score is reported as 2.01.
On to `CN1CCN([C@H]2CC(=O)N(c3ccc(N4CCOCC4)cc3)C2=O)CC1`, for which the “% Inhibition” value was 10% and the Z score was -1.79.
With `C[C@@H](CN(C)CCc1ccccn1)c1ccccc1`, the “% Inhibition” value is recorded as -8% and the Z score is 1.19.
As for `Cc1cc(C)cc(CS(=O)(=O)NC(=O)[C@H]2CC2(C)C)c1`, the “% Inhibition” value is -7% and the Z score was 0.61.
The like results for `Cc1n[nH]c(C)c1NC(=O)CNC1(c2cccc(Cl)c2)CCCC1` were, in that order, -5% and 0.62.
On to `O=C(CNS(=O)(=O)Cc1ccccc1Cl)N1CCO[C@H](c2ccccc2)C1`, for which the “% Inhibition” value was -14% and the Z score turned out to be 2.14.
In the case of `CN(CC(=O)Nc1cccc(F)c1)C(=O)CCC1CCCCC1`, the “% Inhibition” value is recorded as -1% and the Z score came out at 0.13.
For `O=C(NCc1n[nH]c2c1CCC2)c1coc(COc2cccc(F)c2F)n1`, the “% Inhibition” value is -9% and the Z score is reported as 1.25.
Taken in the same sequence, the figures for `CCN(CCO)S(=O)(=O)c1cccs1` were -7% and 0.95.
Consider `CCc1nnc(Cn2cnc3c(cnn3C)c2=O)s1`, for which the “% Inhibition” value is -1% and the Z score was found to be 0.1.
As for `O=C1[C@@H]2CC[C@@H](C2)N1Cc1ccc(Cl)c(Cl)c1`, the “% Inhibition” value is reported as -9% and the Z score stood at 1.6.
For `CN1C[C@@H](NC(=O)C2(C)CCCC2)CC1=O`, the “% Inhibition” value is -4% and the Z score is 0.66.
Taken in the same sequence, the figures for `CCc1nc(N2CCC(NC3CCOCC3)CC2)c2ccsc2n1` were 2% and -0.38.
Consider `Cc1ccc(-n2nc(C)cc2NS(=O)(=O)c2c(C)nn(C(C)C)c2C)nn1`, for which the “% Inhibition” value is on record as -9% and the Z score came to 1.42.
For the compound `Cc1cccc(N(C)Cc2ccc(C(=O)N(C)C)[nH]2)c1C`, the “% Inhibition” value came to 29% and the Z score is listed as -3.32.
Take `CC1(C)[C@H]2CC=C(CN3CCn4nc(C#N)cc4C3)[C@@H]1C2`: the “% Inhibition” value was found to be 8% and the Z score is on record as -1.06.
In the case of `O=C(Nc1nc(C(=O)NCc2cccc(C(F)(F)F)c2)cs1)c1cc(F)cc(F)c1`, the “% Inhibition” value was -10% and the Z score worked out at 1.97.
Turning to `Cc1ncn(CCNC(=O)c2ccccc2-n2cncn2)c1C`, the “% Inhibition” value was 12% and the Z score is listed as -1.56.
Turning to `FC(F)(F)c1cccc(OCc2ccc(-c3nc4c([nH]3)CCNC4)cc2)c1`, the “% Inhibition” value is given as 12% and the Z score is reported as -2.34.
Taken in the same sequence, the figures for `Cc1noc(C)c1C(=O)N1CC[C@@H](n2c(=O)n(C)c3cccnc32)C1` were -11% and 1.39.
Turning to `Cc1cc(S(=O)(=O)N2CCS(=O)(=O)C3COCCC32)c(C)s1` (stereo not drawn), the “% Inhibition” value stood at 16% and the Z score is -2.05.
Taken in the same sequence, the figures for `COc1ncccc1-c1csc(CN2CCOCC2)n1` were 4% and -0.52.
Turning to `CCCN(C)C(=O)c1cc(-c2cnc(C(C)C)nc2)nc2c(C)c(C)ccc12`, the “% Inhibition” value was determined as 10% and the Z score was -1.29.
The like results for `O=C(NCCOCC(F)(F)F)c1csc2cncn12` were, in that order, -6% and 0.96.
With `CCc1ccc(Cn2nc(CC3CC3)nc2CCC(=O)N(C)C)cc1`, the “% Inhibition” value was 16% and the Z score is listed as -2.06.
`CC(C)C[C@@H]1N[C@H](C(=O)NCc2ccco2)Cc2cn(Cc3nccn3C)c3cccc1c23`: the “% Inhibition” value is listed as -11% and the Z score is given as 2.01.
Taken in the same sequence, the figures for `CC1CC(C(=O)N2CCC(c3ncc[nH]3)C2)CC(C)(C)C1` (stereo not drawn) were -8% and 1.26.
For `CN(C)C(=O)Cc1ccc(F)c(Br)c1`, the “% Inhibition” value is recorded as -8% and the Z score amounted to 0.79.
Taken in the same sequence, the figures for `COC(=O)N(C)CC(=O)N(C)c1c(F)cccc1F` were -16% and 1.66.
On to `CN1C[C@@H](O)CNS(=O)(=O)c2ccccc2O[C@H]2CN(Cc3cncnc3)C[C@H]21`, for which the “% Inhibition” value is -2% and the Z score is given as 0.26.
Consider `Cc1cccc(CN[C@H]2CCOC2)c1Br`, for which the “% Inhibition” value was -18% and the Z score is 3.16.
In the case of `Cc1cccc(-n2nc3nc(NCCN4CCCCC4)nc(-c4ccc(Cl)cc4)c3c2N)c1`, the “% Inhibition” value is on record as -7% and the Z score stood at 0.71.
Taken in the same sequence, the figures for `NC(=O)c1cc(OC2CCN(CC(F)(F)F)CC2)ccn1` were -8% and 0.98.
Taken in the same sequence, the figures for `O=C(Nc1ccn(-c2ccccc2)n1)c1ccccc1` were -6% and 0.7.
Regarding `CCC(CC)C(=O)N1CC[C@H]2CC(=O)Nc3cccnc3OCC[C@H]2C1`, the “% Inhibition” value is -12% and the Z score was determined as 2.32.
Turning to `CN1CC(=O)N(CC(=O)N2CCC[C@H](c3nc4ccccc4s3)C2)C1=O`, the “% Inhibition” value is -4% and the Z score is listed as 0.37.
In the case of `CCC(C)C(=O)C(=O)N1CCC(C2(CC)NC(=O)N(Cc3ccc4c(c3)OCO4)C2=O)CC1` (stereo not drawn), the “% Inhibition” value is given as -3% and the Z score was 0.3.
With `COCCN(CCOC)C(=O)c1cc(C)nc2c1c(C)nn2C(C)(C)C`, the “% Inhibition” value was 1% and the Z score is -0.13.
As for `Clc1cccc(OCc2nc3ccccc3o2)c1Cl`, the “% Inhibition” value is listed as -7% and the Z score is 0.95.
Taken in the same sequence, the figures for `COc1cncc(O[C@H]2CCN(C(=O)c3ccc(C#N)cc3)C2)n1` were -1% and 0.1.
`c1ccc(-c2nnc(-c3ccncc3)nc2-c2ccccc2)cc1`: the “% Inhibition” value is on record as -7% and the Z score is 0.61.
`CCN(CC(F)(F)F)C(=O)C[C@@H]1C=CCC1`: the “% Inhibition” value was -15% and the Z score came out at 1.71.
As for `COC(=O)c1ccc(NC(=O)c2cccc(-c3nc(-c4ccc(F)cc4)no3)c2)cc1`, the “% Inhibition” value is -7% and the Z score worked out at 0.89.
The like results for `Cc1cccc([C@@H](NC(=O)Cc2ccccc2C)C2CC2)n1` were, in that order, 1% and -0.15.
As for `CCn1c(=O)c(CCC(=O)NCc2ccccc2)nc2c(C)nn(-c3ccccc3)c21`, the “% Inhibition” value is reported as 6% and the Z score is reported as -0.89.
As for `COc1cccc2c1N(C(=O)Cc1ccccc1)C(C)(C)c1ssc(=S)c1-2`, the “% Inhibition” value is -13% and the Z score was determined as 1.48.
Turning to `Cc1nc(C(=O)Nc2ccc(C(N)=O)cc2)c(-c2ccc(F)cc2)s1`, the “% Inhibition” value is given as -6% and the Z score stood at 1.16.
`CC1=NO[C@](C)(C(=O)NCc2cc(C3CC3)[nH]n2)C1`: the “% Inhibition” value is -8% and the Z score came to 0.84.
The like results for `Cc1ccc(C(=O)N[C@@H]2CN(C3CCOCC3)C[C@H]2CO)cc1F` were, in that order, 1% and -0.17.
Regarding `Cc1cc(=O)n(CC(=O)N2CCC(C)CC2)c(-c2ccc(F)cc2)n1`, the “% Inhibition” value turned out to be 31% and the Z score is given as -4.52.
With `COc1cccc2c1Oc1ncccc1N(C(=O)CCC(=O)NCCCN1CCCCC1)C2`, the “% Inhibition” value is 12% and the Z score is -1.56.
As for `O=C(C1CCN(S(=O)(=O)c2cccc3nsnc23)CC1)N1CCC(Cc2nc(C3CCOCC3)no2)CC1`, the “% Inhibition” value is -17% and the Z score is 2.25.
The like results for `CCCNC(=O)c1ccc(COc2ccc3c(c2)[C@H](c2cccc(C)c2)N(C(=O)C2CCCC2)CC3)o1` were, in that order, -3% and 0.39.
As for `O=C([C@H]1CCCN(c2ncnc3c2nc2n3CCCCC2)C1)N1CCCCCC1`, the “% Inhibition” value is listed as -10% and the Z score was found to be 1.61.
With `CCCOC[C@H]1CCN(C(=O)Cn2cnnn2)C1`, the “% Inhibition” value was 0% and the Z score is recorded as 0.06.
As for `O=C(Nc1ccc2c(c1)C(F)(F)OC(F)(F)O2)N1CCOCC1`, the “% Inhibition” value is given as -10% and the Z score amounted to 1.14.
Turning to `O=C(NC[C@H]1Cn2c(-c3ccc(F)cc3)cnc2CO1)c1cccnc1`, the “% Inhibition” value was found to be 35% and the Z score is given as -3.96.
Regarding `Cc1ccc(-c2nnc(NC(=O)c3c(C)noc3C)[nH]2)o1`, the “% Inhibition” value is given as -2% and the Z score amounted to 0.24.
Taken in the same sequence, the figures for `Cc1nnnn1[C@@H](Cc1ccccc1)C(=O)NCc1nccs1` were -6% and 0.81.
`COc1ccc(-c2cc(C(=O)N(Cc3ccncc3)CC(C)C)[nH]n2)cc1`: the “% Inhibition” value was determined as 2% and the Z score is listed as -0.28.
Regarding `Cc1cccc(OC(=O)c2snnc2C)c1`, the “% Inhibition” value is 0% and the Z score was -0.05.
On to `Cc1ccc(C(=O)Oc2ccc(N3CCCC3=O)cc2)cn1`, for which the “% Inhibition” value was -12% and the Z score is reported as 1.66.
With `COC(=O)CC[C@H]1NC(=O)N(c2ccc(OCC(F)(F)C(F)F)nc2)C1=O`, the “% Inhibition” value is given as -9% and the Z score came out at 1.48.
Regarding `CN(Cc1ccc(-n2cccn2)cc1)c1cc(N2CCC(O)CC2)ncn1`, the “% Inhibition” value was -6% and the Z score turned out to be 1.21.
The like results for `C[C@@H](C(=O)N(C)C)S(=O)(=O)Nc1cccnc1Nc1ccccc1` were, in that order, -12% and 2.45.
For `COc1cccc(-c2ccc(N(C)CCO)nn2)c1F`, the “% Inhibition” value is -15% and the Z score is given as 2.77.
Turning to `COc1cc(C)c(-c2ccc(C(=O)N[C@@H](C)c3cnn(C)c3)cc2)cc1C`, the “% Inhibition” value was found to be 11% and the Z score is -1.24.
The like results for `O=C(N[C@H]1CCN(C2CCOCC2)C1=O)c1ccnn1CC(F)F` were, in that order, -1% and 0.09.
